Measured values reported in US10358426B2, “Fungicidal substituted 2-[2-halogenalkyl-4-(phenoxy)-phenyl]-1-[1,2,4]triazol-1-yl-ethanol compounds” (BASF Agro B.V., priority 2011, dated 2019).

System: Botrytis cinerea
Assay: Activity against the grey mold in the microtiterplate test (Botrci)
Format: cell-based
Details: Use Example 11 comparison

CC(O)(Cn1cncn1)c1ccc(Oc2ccc(Cl)cc2)cc1C(F)(F)F (stereo not shown) [compound I-2, 2-[4-(4-chloro-phenoxy)-2-trifluoromethyl-phenyl]-1-[1,2,4]triazol-1-yl-propan-2-ol]
Growth (%) at 0.125 ppm Botrci: 17%
